# Results taken from the supplement of paper PMC8728848.
# The list shows a part of the results.
# B1: Epa1to9 (Candida glabrata) (protein)
# chain: MGSSHHHHHHSSGLVPRGSHMTSSNDISLASKDPTTFPLGCSPDITTPKKGLSMELYSYDFRKKGSYPCWDAAYLDPNYPRTGYKSHRLLAKVDGVTGNINFYYHATKGCTPQLGHLPASYNYPKPLTMTNFTMLLYGYFRPKVTGFHTFTISADDLLFVNFGAGNAFDCCRRDSSADHFGNYQAYAIWGSKTAKDELTVHLDAGVYYPIRLFYNNRDYHGALSFTFKTESNENTVSDFSEYFFSLDDTEEGCPGLISYD
# What was measured:
# Assay in all cases: glycan array binding signal (z-score within array); higher = stronger binding
# Details in all cases: glycan notation: IUPAC condensed, linker removed
# [1] = target: Man(a1-3)[Man(a1-6)]Man(a1-6)[Man(a1-2)Man(a1-3)]Man(b1-4)GlcNAc(b1-4)GlcNAc
# Method in brief: (§1)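 Glycan array data came from 3228 arrays in the Consortium for Functional Glycomics database, and only arrays with an available protein sequence were kept. Glycan names were put into IUPAC-condensed notation, and columns mapping to the same glycan were averaged. The binding signal is a within-array Z-score, averaged across arrays of one protein sequence run at different concentrations or buffers and across linkers. A negative Z-score can be read as non-binding.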
# [2] = target: Man(a1-3)[Man(a1-6)]Man(a1-6)[Man(a1-3)]Man
# Method in brief: as §1
# [3] = target: Man(a1-3)[Man(a1-6)]Man(a1-6)[Man(a1-3)]Man(b1-4)GlcNAc(b1-4)GlcNAc
# Method in brief: as §1
# [4] = target: Man(a1-3)[Man(a1-6)]Man(b1-4)GlcNAc(b1-4)GlcNAc
# Method in brief: as §1
# [5] = target: Man(a1-3)[Man(a1-6)]Man(b1-4)GlcNAc(b1-4)[Fuc(a1-6)]GlcNAc
# Method in brief: as §1
# [6] = target: Man(a1-6)Man
# Method in brief: as §1
# [7] = target: Man(b1-4)GlcNAc
# Method in brief: as §1
# [8] = target: MurNAc(b1-4)GlcNAc
# Method in brief: as §1
# [9] = target: Neu5Ac(a2-3)Gal
# Method in brief: as §1
# [10] = target: Neu5Ac(a2-3)Gal(b1-3)GalNAc
# Method in brief: as §1
# [11] = target: Neu5Ac(a2-3)Gal(b1-3)GalNAc(b1-3)Gal(a1-4)Gal(b1-4)Glc
# Method in brief: as §1
# [12] = target: Neu5Ac(a2-3)Gal(b1-3)GalNAc(b1-4)[Neu5Ac(a2-3)]Gal(b1-4)Glc
# Method in brief: as §1
# [13] = target: Neu5Ac(a2-3)Gal(b1-3)GalNAc(b1-4)[Neu5Ac(a2-8)Neu5Ac(a2-3)]Gal(b1-4)Glc
# Method in brief: as §1
# [14] = target: Neu5Ac(a2-3)Gal(b1-3)GalNAc6S
# Method in brief: as §1
# [15] = target: Neu5Ac(a2-3)Gal(b1-3)GlcNAc
# Method in brief: as §1
# [16] = target: Neu5Ac(a2-3)Gal(b1-3)GlcNAc(b1-2)Man
# Method in brief: as §1
# [17] = target: Neu5Ac(a2-3)Gal(b1-3)GlcNAc(b1-2)Man(a1-3)[GlcNAc(b1-4)][Neu5Ac(a2-3)Gal(b1-3)GlcNAc(b1-2)Man(a1-6)]Man(b1-4)GlcNAc(b1-4)GlcNAc
# Method in brief: as §1
# [18] = target: Neu5Ac(a2-3)Gal(b1-3)GlcNAc(b1-2)Man(a1-3)[Neu5Ac(a2-3)Gal(b1-3)GlcNAc(b1-2)Man(a1-6)]Man(b1-4)GlcNAc(b1-4)GlcNAc
# Method in brief: as §1
# [19] = target: Neu5Ac(a2-3)Gal(b1-3)GlcNAc(b1-2)[Neu5Ac(a2-3)Gal(b1-3)GlcNAc(b1-4)]Man(a1-6)[Neu5Ac(a2-3)Gal(b1-3)GlcNAc(b1-2)Man(a1-3)]Man(b1-4)GlcNAc(b1-4)GlcNAc
# Method in brief: as §1
# [20] = target: Neu5Ac(a2-3)Gal(b1-3)GlcNAc(b1-3)Gal(b1-3)GlcNAc
# Method in brief: as §1
# [21] = target: Neu5Ac(a2-3)Gal(b1-3)GlcNAc(b1-3)Gal(b1-4)GlcNAc
# Method in brief: as §1
# [22] = target: Neu5Ac(a2-3)Gal(b1-3)GlcNAc(b1-3)GalNAc
# Method in brief: as §1
# [23] = target: Neu5Ac(a2-3)Gal(b1-3)GlcNAc(b1-4)Gal(b1-4)Glc
# Method in brief: as §1
# [24] = target: Neu5Ac(a2-3)Gal(b1-3)GlcNAc(b1-6)GalNAc
# Method in brief: as §1
# [25] = target: Neu5Ac(a2-3)Gal(b1-3)GlcNAc6S
# Method in brief: as §1
# [26] = target: Neu5Ac(a2-3)Gal(b1-3)[Fuc(a1-4)]GlcNAc
# Method in brief: as §1
# [27] = target: Neu5Ac(a2-3)Gal(b1-3)[Fuc(a1-4)]GlcNAc(b1-3)Gal(b1-3)[Fuc(a1-4)]GlcNAc
# Method in brief: as §1
# [28] = target: Neu5Ac(a2-3)Gal(b1-3)[Fuc(a1-4)]GlcNAc(b1-3)Gal(b1-4)[Fuc(a1-3)]GlcNAc
# Method in brief: as §1
# [29] = target: Neu5Ac(a2-3)Gal(b1-3)[GlcNAc(b1-6)]GalNAc
# Method in brief: as §1
# [30] = target: Neu5Ac(a2-3)Gal(b1-3)[Neu5Ac(a2-6)]GalNAc
# Method in brief: as §1
# [31] = target: Neu5Ac(a2-3)Gal(b1-3)[Neu5Ac(a2-6)]GlcNAc(b1-3)[Fuc(a1-3)[Gal(b1-4)]GlcNAc(b1-6)]Gal(b1-4)Glc
# Method in brief: as §1
# [32] = target: Neu5Ac(a2-3)Gal(b1-3)]Neu5Ac(a2-3)Gal(b1-4)]GlcNAc
# Method in brief: as §1
# [33] = target: Neu5Ac(a2-3)Gal(b1-4)Glc
# Method in brief: as §1
# [34] = target: Neu5Ac(a2-3)Gal(b1-4)GlcNAc
# Method in brief: as §1
# [35] = target: Neu5Ac(a2-3)Gal(b1-4)GlcNAc(b1-2)Man
# Method in brief: as §1
# [36] = target: Neu5Ac(a2-3)Gal(b1-4)GlcNAc(b1-2)Man(a1-3)[GlcNAc(b1-4)][Neu5Ac(a2-3)Gal(b1-4)GlcNAc(b1-2)Man(a1-6)]Man(b1-4)GlcNAc(b1-4)GlcNAc
# Method in brief: as §1
# [37] = target: Neu5Ac(a2-3)Gal(b1-4)GlcNAc(b1-2)Man(a1-3)[Neu5Ac(a2-3)Gal(b1-4)GlcNAc(b1-2)Man(a1-6)]Man(b1-4)GlcNAc(b1-4)GlcNAc
# Method in brief: as §1
# [38] = target: Neu5Ac(a2-3)Gal(b1-4)GlcNAc(b1-2)Man(a1-3)[Neu5Ac(a2-3)Gal(b1-4)GlcNAc(b1-2)Man(a1-6)]Man(b1-4)GlcNAc(b1-4)[Fuc(a1-6)]GlcNAc
# Method in brief: as §1
binder,measurement,setting,value
B1,glycan array binding signal (z-score),[1],-0.294
same,glycan array binding signal (z-score),[2],-0.347
same,glycan array binding signal (z-score),[3],-0.335
same,glycan array binding signal (z-score),[4],-0.358
same,glycan array binding signal (z-score),[5],-0.339
same,glycan array binding signal (z-score),[6],-0.35
same,glycan array binding signal (z-score),[7],-0.344
same,glycan array binding signal (z-score),[8],-0.359
same,glycan array binding signal (z-score),[9],-0.349
same,glycan array binding signal (z-score),[10],-0.37
same,glycan array binding signal (z-score),[11],-0.344
same,glycan array binding signal (z-score),[12],-0.336
same,glycan array binding signal (z-score),[13],-0.3
same,glycan array binding signal (z-score),[14],-0.269
same,glycan array binding signal (z-score),[15],-0.335
same,glycan array binding signal (z-score),[16],-0.33
same,glycan array binding signal (z-score),[17],-0.282
same,glycan array binding signal (z-score),[18],-0.346
same,glycan array binding signal (z-score),[19],-0.34
same,glycan array binding signal (z-score),[20],-0.362
same,glycan array binding signal (z-score),[21],-0.389
same,glycan array binding signal (z-score),[22],-0.311
same,glycan array binding signal (z-score),[23],-0.338
same,glycan array binding signal (z-score),[24],-0.339
same,glycan array binding signal (z-score),[25],-0.339
same,glycan array binding signal (z-score),[26],-0.371
same,glycan array binding signal (z-score),[27],-0.324
same,glycan array binding signal (z-score),[28],-0.372
same,glycan array binding signal (z-score),[29],-0.328
same,glycan array binding signal (z-score),[30],-0.182
same,glycan array binding signal (z-score),[31],-0.271
same,glycan array binding signal (z-score),[32],-0.222
same,glycan array binding signal (z-score),[33],-0.35
same,glycan array binding signal (z-score),[34],-0.349
same,glycan array binding signal (z-score),[35],-0.322
same,glycan array binding signal (z-score),[36],-0.347
same,glycan array binding signal (z-score),[37],-0.339
same,glycan array binding signal (z-score),[38],-0.338
